PubChem BioAssay AID493208 (National Center for Advancing Translational Sciences (NCATS), 2011)
The campaign covered roughly 44,000 compounds. About 340 (0.77%) were called active. About 5% were inconclusive and are not listed. Calls come from the whole dose curve; as a rule, active = well fitted inhibition curve with a large enough effect; inconclusive = small, poorly fitted or top-dose-only effect; inactive = flat fitted curve, though single readings scatter. The list shows a part of the results.

Test: Acumen qHTS Assay for Inhibitors of the mTORC1 Signaling Pathway in MEF (Tsc2-/-, p53-/-) Cells: Sytravon;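 note: plate controls were DMSO for no effect and rapamycin for full effect; nearly all actives have a fitted effect of over 50% in size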
Conditions: phospho-rpS6 immunofluorescence/PI, 24 h; series mostly up to 38.3 µM; activity change, negative = inhibition: at the top concentration
Method in brief: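 Compounds act on Tsc2-/-, p53-/- fibroblasts carrying an empty vector for 24 h before fixation and dual staining for phospho-S6 and DNA (propidium iodide). Values are percentages of cells above a rapamycin-defined pS6/PI threshold.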

Activity change, negative = inhibition, inactive:
CCc1ccc(NC(=O)c2cc(S(=O)(=O)N3CCCC3)ccc2F)cc1 5.95%, COc1ccc(CCNC(=O)c2cc(C)nc3c2c(C)nn3-c2ccccc2)cc1OC -1.87%, Cn1c(CNC(=O)CSc2n[nH]c(-c3ccccc3)n2)nc2ccccc21 0.601%, CC(C)(C)C1CCc2c(sc(NC(=O)Cn3nnc(-c4cccc(C(F)(F)F)c4)n3)c2C#N)C1 (stereo not drawn) 4.09%, CCCCCOC(=O)CSc1nc2sc3c(c2c(=O)n1Cc1ccccc1)CC(C)(C)OC3 8.61%, CCN1CCSc2ccc(C(=O)NCc3cccc(F)c3)cc21 -3.84%, O=C(Cn1c(=O)n(-c2ccc(Cl)cc2)c(=O)c2c3c(sc21)CCC3)c1ccc(F)cc1 -7.87%, CCCCc1nn2c(=O)cc(COC(=O)c3ccc(NC(=O)c4cccs4)cc3)nc2s1 0%, COc1ccccc1N1CCN(C(=O)CSc2nc3ccccc3nc2Cc2ccc(F)cc2)CC1 9.1%, COc1ccccc1Cn1c(CNS(=O)(=O)c2ccc3c(c2)CCCC3)nc2cccnc21 1.49%, Cc1csc2nc(COc3ccc(NC(=O)COc4ccccc4F)cc3)cc(=O)n12 -7.82%, Cc1nc2sccn2c(=O)c1S(=O)(=O)Nc1ccc(N2CCN(S(C)(=O)=O)CC2)cc1 -3.26%, CCC(=O)N1c2ccccc2CC1C(=O)NCCN1CCN(c2cccc(C)c2C)CC1 (stereo not drawn) 0%, Cc1ccc(-c2nc3ccccc3o2)cc1NC(=O)c1cccc2c(Cl)cccc12 -0.443%, Cc1cccc(Nc2nc(-c3ccccc3)c3cc(C)ccc3n2)c1 -3.53%, O=[N+]([O-])c1cc(-c2nc(-c3ccccc3)no2)ccc1N1CCCC1 3.21%, Cc1ccccc1NCc1cccn1-c1nnc(N2CCOCC2)s1 -5.37%, CC(C)OCCCn1c(SCC(=O)Nc2ccc(F)cc2)nc2c(sc3ccccc32)c1=O -1.33%, Cc1ccc(NC(=O)CSc2nnc3[nH]c(=O)cc(C)n23)cc1Cl 3.21%, COc1cccc(CNC(=O)CCc2nnc3n(CC(C)C)c(=O)c4ccccc4n23)c1 -0.965%, Cc1sc2c(c1C)c(=O)n(-c1ccccc1)c(=O)n2CC(=O)c1ccc(Cl)cc1 -5.09%, CCC(Sc1nc2c(sc3ccccc32)c(=O)n1CCCC(=O)NC1CCCC1)C(=O)Nc1cccc(OC)c1 (stereo not drawn) 1.18%, CC(C)CC(=O)N1CC(=O)Nc2ccc(F)cc2C1c1ccccc1 (stereo not drawn) 0.668%, Cc1ccc(OCCSc2nc3ccc(NC(=O)c4ccc5c(c4)OCO5)cc3s2)cc1 -3.65%, COc1ccc(NC(=O)c2cc3c(=O)n(C)c4ccccc4c3s2)cc1Cl -0.828%, CCOC(=O)C1CCCN(C(=O)c2c(C)nn(-c3ccc(F)cc3)c2-n2cccc2)C1 (stereo not drawn) -0.626%, O=C(Nc1ccc(F)cc1)C1CCN(c2nc3ccccc3n3cccc23)CC1 4.05%, CCCc1ccc(OC(=O)CSc2nnc(-c3cccs3)o2)cc1 1.56%, CCS(=O)(=O)N1CCc2cc(C(=O)Nc3cccc(C)c3C)ccc21 -6.01%, CSc1ccc(CCNC(=O)CCn2c(=O)c3cccn3c3cccnc32)cc1 4.99%, O=C(NC1(C(F)(F)F)NC(=O)N(CCc2ccccc2)C1=O)c1ccccc1Cl (stereo not drawn) -0.291%, Cc1cccc(NC(=O)CSc2nnc(N)s2)c1 9.98%, CC(=O)c1cccc(NCc2ccccc2-c2nnc(-c3ccccc3)o2)c1 -20.9%, CCOc1ccc(S(=O)(=O)N2CCC(N3CCN(Cc4ccc(F)cc4)C(=O)C3=O)CC2)cc1 4.23%, Cc1nc(-n2nc(C)c(Cc3ccccc3Cl)c2C)sc1C(=O)N1CCC(C)CC1 -0.257%, CCOC(=O)C(CC)Sc1ncnc2sc3c(c12)CCCC3 (stereo not drawn) -15.6%, O=C(CCn1cccn1)NCc1ccc(Cl)cc1 -2.13%, Cc1cccc(-n2ncc(C(=O)N3CCc4ccccc4C3)c2C2CCN(C(=O)OC(C)(C)C)CC2)c1 -3.24%, Cc1nn2c(=O)cc(COC(=O)c3cccc(NC(=O)COc4ccc(C)c(C)c4)c3)nc2s1 12.2%, Cc1c(-c2nsc(NC(=O)c3cccs3)n2)nnn1-c1ccc(Cl)cc1 -8.19%, N#Cc1c[nH]n2c(NC3CCCCC3)c(-c3ccccc3F)nc12 -2.83%, CCSc1ncc(Cl)c(C(=O)N(Cc2ccccc2Cl)C2CCS(=O)(=O)C2)n1 (stereo not drawn) 2.89%, O=C(C1CCN(S(=O)(=O)c2cccs2)CC1)N1CCN(c2cccc(Cl)c2)CC1 0.69%, O=C(NCCc1ccc(Cl)cc1)C(=O)NCC(c1ccco1)S(=O)(=O)c1cccs1 (stereo not drawn) -5.74%, CSc1ncc2c(n1)-c1ccccc1N(Cc1ccc(F)cc1)S2(=O)=O -0.657%, COC(=O)c1nnn(CC(=O)Nc2cc(F)ccc2F)c1C(=O)OC -0.621%, COc1ccc(OC)c(CNS(=O)(=O)c2ccc3[nH]c4c(c3c2)CCCCC4)c1 -7.87%, O=c1ccc2cc(S(=O)(=O)NCc3ccc(Br)cc3)ccc2[nH]1 1.19%, Cc1ccc(NC(=O)CSc2nccn2Cc2ccco2)cc1Cl 2.88%, COc1cccc(NC(=O)CSCc2cc(=O)c3ccc(C)c(C)c3[nH]2)c1 -0.625%, Cn1c(=O)c2c(n3c4ccccc4nc13)NC(=O)CC2c1cccc(F)c1 (stereo not drawn) -10.7%, CCNc1ccc(-c2nc(-c3ccccn3)no2)cc1[N+](=O)[O-] 1.31%, COc1ccc(-c2onc(C)c2C)cc1S(=O)(=O)NCC(C)c1ccccc1 (stereo not drawn) -3.81%, Cc1cc(NC(=O)COCc2cc(-c3ccc(F)cc3)on2)ccc1Br 0.12%, O=C(CCCCn1c(=O)c2ccccc2n(Cc2ccccc2Cl)c1=O)NCc1ccc2c(c1)OCO2 7.68%, CCOc1ccc(CCNS(=O)(=O)c2c(C)nc3scc(C)n3c2=O)cc1OCC -0.0539%, CCCn1c2ccccc2c2cnn(CC(=O)N3CCN(c4ccccc4F)CC3)c(=O)c21 1.72%, CCOc1ccc(CNC(=O)c2ccc3nc(CC)c(CC)nc3c2)cc1 -1.51%, CC(C)Oc1cccc(C(=O)Nc2ccc3oc(-c4cccc(Cl)c4)nc3c2)c1 -1.79%, COc1cccc(N2CCN(C(=O)CCCn3c(=O)[nH]c4ccc(Br)cc4c3=O)CC2)c1 11.4%, Cc1ccc(Nc2c(-c3ccc(Cl)cc3)nc3sccn23)c(C)c1 -25.2%, Cc1ccc(C)c(NC(=O)N2CCC(CN3CCOCC3)CC2)c1 -2.37%, CCn1c(=O)c2cc(C(=O)NCCCOC)sc2c2ccccc21 -1.97%, Cc1cc(C)n(-c2nc3ccccc3nc2Nc2ccc(Cl)cc2Cl)n1 14.7%, COc1ccc(CNC(=O)CCC2N=C3c4ccccc4N=C(SCc4cccc(F)c4)N3C2=O)cc1 (stereo not drawn) 0.0741%, CC(=O)N1CCCc2cc(S(=O)(=O)NCc3cccc(C)c3)ccc21 -9.86%, CCCN(CCC)C(=O)Cn1nnc2sc(-c3ccccc3)cc2c1=O -1.71%, O=c1c2cnn(-c3ccc(F)cc3)c2ncn1Cc1cccc(Cl)c1 2.27%, Cc1ccc(C(=O)c2cn(Cc3cccc(C)c3)c3nc(C)ccc3c2=O)cc1 -1.44%, Cc1nn2c(=O)cc(COC(=O)c3cccc(NC(=O)COc4ccccc4Cl)c3)nc2s1 0%, COc1ccc(NC(=O)Cn2c(=O)n(-c3ccccc3)c(=O)c3c4c(sc32)CCCC4)c(OC)c1 -4.2%, Cc1ccc(CNC(=O)c2nc(SCc3ccc(F)cc3)ncc2Cl)cc1 2.33%, CC(C)Oc1ccc(CNS(=O)(=O)c2ccc3c(c2)C(C)(C)C(=O)N3C)cc1 2.54%, COc1ccc(S(=O)(=O)n2nc(C)c(S(=O)(=O)N3CCCCCC3)c2C)cc1 0.394%, Cc1cc(C)n2c(Nc3ccc4c(c3)OCCO4)c(-c3ccc(Cl)cc3)nc2n1 1.37%, Cc1ccccc1NC(=O)NCCCN1CCN(c2ccccc2F)CC1 -3.02%, COC(=O)c1cc(S(=O)(=O)N2CCN(c3ccc(OC)cc3)CC2)c[nH]1 -0.482%, Cc1cc(N2CCCCC2)nc2ccc(NC(=O)/C=C/c3ccc(OC(C)C)cc3)cc12 5.08%, Cc1ccc(NC(=O)c2cnc(N3CCCCC3)c3ccccc23)c(C)c1 -0.909%, COCCCNC(=O)C1CCN(C(=O)c2cnn(-c3ccccc3)c2-n2cccc2)CC1 -3.98%, CCCN1CCN(C(=O)Cn2c(-c3cccs3)cc3ccccc32)CC1 -0.551%, COC(=O)c1c(Oc2ccc(OC)cc2)nnc(-c2ccccc2)c1-c1ccccc1 -11.1%, CCCCOc1ccc(C2=NC(c3cccs3)=Nc3ccc(CC)cc3N2)cc1 -8.95%, CC(C)CC(=O)Nc1nc2nc(-c3ccccc3)cc(=O)n2[nH]1 -1.03%, COc1ccc(CNC(=O)CCCn2nc(C)c3sc4ccccc4c3c2=O)cc1OC 6.73%, CCOc1ccccc1CNC(=O)c1ccc(N2Cc3ccccc3Oc3ncccc32)s1 0.354%, Cc1ccc(N2C(=O)NC(NS(=O)(=O)c3ccccc3)(C(F)(F)F)C2=O)cc1C (stereo not drawn) -3.69%, Cc1cccc(NC(=O)N2CCN(C(=O)c3nsc4ccccc34)CC2)c1C 10.6%, COc1cccc(NC(=O)CN2C(=O)CSc3ccc(S(=O)(=O)N4CCCC4)cc32)c1 1.9%, Cc1ccc(CNC(=O)c2cccn2-c2nnc(N3CCCC3)s2)cc1 -2.75%, Clc1ccc2c(c1)-c1c(cnc3cc(-c4ccccc4)nn13)CO2 4.51%, COc1ccc(N2CCN(C(=O)c3cnn(-c4ccc(F)cc4)c3-n3cccc3)CC2)cc1 5.27%, COC(=O)COc1ccc2oc(-c3ccc(OC)cc3)cc(=O)c2c1 -2.29%, O=C(Nc1ccc(Br)cc1F)C1CCN(c2nc3ccccc3[nH]2)CC1 0.628%, CCOc1ccc(C(=O)Nc2nnc(S(=O)(=O)Nc3ccccc3)s2)cc1 3.76%, CCOc1cc2[nH]c(=O)n(CCCCC(=O)N3CCN(c4ccc(OC)cc4)CC3)c(=O)c2cc1OCC -10.2%, O=C1CCCc2cc(S(=O)(=O)N3CCCC(C(=O)Nc4ccc(F)c(Cl)c4)C3)ccc2N1 (stereo not drawn) -9.35%, Cc1ccc(CNC(=O)CCc2c(C)c3ccc(O)c(C)c3oc2=O)cc1 5.46%
